From patent US20250223331A1, “GLP-1/GIP DUAL-TARGETED POLYPEPTIDE AND FUSION PROTEIN AND APPLICATIONS THEREOF” (SUNSHINE LAKE PHARMA CO., LTD., priority 2021, published 2025)

Columns and labels:
[1] = test system: GLP-1R or GIPR; test: in vitro agonistic activity of fusion proteins, summary statement; format: cell-based; details: cAMP, GLP-1R / GIPR cells
Experimental: The digested product was electrophoresed on 1% agarose gel and the target band was cut out with a clean blade, then a gel recovery kit was used to recover the target fragment. The specific experimental operations are carried out according to the kit instructions; • 3) The target fragment enzymatic digestion recovery product and vector plasmid pcDNA3.1 fragment were connected through T4 ligase and transformed into DH5a competent cells, then single colonies were isolated by spreading on plates, and the transformants were selected and expanded for enzyme digestion verification and sequencing verification. • 4) 200 mL of the bacterial liquid obtained in inoculation step 3) and verified by sequencing to contain the fusion protein of the target product was used for plasmid extraction. The kit used was PureLink HiPure Plasmid Maxiprep Kit, and according to the instructions. After the plasmid was verified to be correct by PCR and enzyme digestion, pvuI restriction enzyme was used for linearization. Finally, the ethanol precipitation method was used to recover the plasmid. • 5) The host cells were HEK293, one day before transfection, the cells were spread into a 6-well plate at a density of 2×10^6 cells/well, and the addition volume was 1 mL/well. The recovered linearized plasmid was transfected into HEK293 cells using Lipofectamine 3000 transfection method, then G418 was added to screen to obtain mixed strains, single clones were obtained by limiting dilution and isolation, and the activity was tested and verified.
The cAMP produced by the recipient cells was detected by a cAMP detection kit (Cisbio, 62AM6PEC) according to the steps described in the operating instructions. […] If the mixture was not completely melted within 1.5 min, the cells were added dropwise to a 15 mL centrifuge tube containing 8 mL warm culture medium on a clean bench, then centrifuged at 900 rpm for 5 min, the supernatant was discarded, and the cells were re-suspended with 1 mL complete culture medium (15 times by pipetting).

[2] = test system: DIO mice; test: in vivo efficacy in DIO model: body weight, food intake, liver, blood biochemistry
From the text: Experimental methods: C57/BL6 mice were randomly divided into normal group NFD and model group HFD at the fifth week of age, and the normal group was fed with ordinary maintenance diet, while the model group was fed with high-fat diet D12492. Changes in body weight and food intake in mice were monitored every 3 weeks. After 16 weeks of feeding, the body weight of mice in the model group and the normal group were (47.9±3.4) g and (29.6±1.5) g, respectively, and the difference between the two groups was statistically significant. The normal group was divided into the control group, and the model group mice that were successfully modeled were divided into Vehicle group, Semaglutide group, HEC-G115 group and HEC-G124 group, with 10 mice in each group. For the groups of Semaglutide, HEC-G115 and HEC-G124, the corresponding drug was injected subcutaneously in each group, and PBS was injected subcutaneously in the Vehicle group. […] Weight and food intake were measured before each dose. After 3 weeks of administration, an intraperitoneal glucose tolerance test was performed. After 72 h of the last administration, samples were collected, liver weight was recorded, and liver pathological status and blood biochemical indexes were detected in each group.

[3] = long-term administration 10 nmol/kg s.c., 72 h after last administration
[4] = long-term administration 10 nmol/kg s.c., blood biochemistry

B1: HEC-G35: fusion protein of SEQ ID NO: 26 polypeptide, linker peptide and Fc fragment (protein)
chain: YAEGTFTSDYSIYLDKLAQQEFIDWLKAGGPSSGAPPPSGGGGSGGGGSGGGGSA[here human IgG4 Fc with S228P F234A L235A (EU numbers) without letters]
- agonistic activity in vitro [1]: strong activity in vitro

B2: HEC-G115: fusion protein of SEQ ID NO: 95 polypeptide, linker peptide and Fc fragment (protein)
chain: YSEGTFTSDYSILLDKIAQREFIEWLLAGGPSSGAPPPSGGGGSGGGGSGGGGSA[here human IgG4 Fc with S228P F234A L235A (EU numbers) without letters]
- agonistic activity in vitro [1]: strong activity in vitro
- effect on liver function and blood lipids [2]: significantly improved the liver function and blood lipids
- Cumulative food intake D 7-10 ([2]; 10 nmol/kg s.c. repeated, D 7-10): 13.3 g/pcs
- Weight growth rate D 10 ([2]; 10 nmol/kg s.c. repeated, D 10): −22.2 ± 6.2%
- Cumulative food intake D 11-13 ([2]; 10 nmol/kg s.c. repeated, D 11-13): 19.2 g/pcs
- Weight growth rate D 13 ([2]; 10 nmol/kg s.c. repeated, D 13): −24.3 ± 8.5%
- Cumulative food intake D 14-16 ([2]; 10 nmol/kg s.c. repeated, D 14-16): 25.7 g/pcs
- Weight growth rate D 16 ([2]; 10 nmol/kg s.c. repeated, D 16): −24.2 ± 7.8%
- Cumulative food intake D 17-19 ([2]; 10 nmol/kg s.c. repeated, D 17-19): 33.7 g/pcs
- Weight growth rate D 19 ([2]; 10 nmol/kg s.c. repeated, D 19): −23.9 ± 7.7%
- Cumulative food intake D 20-22 ([2]; 10 nmol/kg s.c. repeated, D 20-22): 42.2 g/pcs
- Weight growth rate D 22 ([2]; 10 nmol/kg s.c. repeated, D 22): −22.4 ± 6.8%
- Cumulative food intake D 23-27 ([2]; 10 nmol/kg s.c. repeated, D 23-27): 55.5 ^a g/pcs
- Weight growth rate D 25 ([2]; 10 nmol/kg s.c. repeated, D 25): −20.4 ± 6.8^a %
- Cumulative food intake D 0 ([2]; 10 nmol/kg s.c., D 0): 0.6 g/pcs
- Weight growth rate D 0 ([2]; 10 nmol/kg s.c., D 0): 0.0 ± 0.0%
- Cumulative food intake D 1 ([2]; 10 nmol/kg s.c., D 1): 1.5 g/pcs
- Weight growth rate D 1 ([2]; 10 nmol/kg s.c., D 1): −5.5 ± 0.7%
- Cumulative food intake D 2 ([2]; 10 nmol/kg s.c., D 2): 2.6 g/pcs
- Weight growth rate D 2 ([2]; 10 nmol/kg s.c., D 2): −8.4 ± 1.0%
- Cumulative food intake D 3 ([2]; 10 nmol/kg s.c., D 3): 3.8 g/pcs
- Weight growth rate D 3 ([2]; 10 nmol/kg s.c., D 3): −9.7 ± 1.1%
- Cumulative food intake D 4 ([2]; 10 nmol/kg s.c., D 4): 5.7 g/pcs
- Weight growth rate D 4 ([2]; 10 nmol/kg s.c., D 4): −11.5 ± 1.1%
- Cumulative food intake D 5 ([2]; 10 nmol/kg s.c., D 5): 7.4 g/pcs
- Weight growth rate D 5 ([2]; 10 nmol/kg s.c., D 5): −12.7 ± 1.7%
- Cumulative food intake D 6 ([2]; 10 nmol/kg s.c., D 6): 9.3 g/pcs
- Weight growth rate D 6 ([2]; 10 nmol/kg s.c., D 6): −13.4 ± 2.0%
- Weight growth rate D 7 ([2]; 10 nmol/kg s.c., D 7): −13.4 ± 2.6%
- Liver ([2]; liver weight, long-term administration 10 nmol/kg s.c., 72 h after last administration): 1.0 ± 0.1 ^a g
- Body weight [2, 3]: 32.4 ± 2.1^a g
- Liver index [2, 3]: 3.0 ± 0.0 ^a %
- ALT [2, 4]: 20.7 ± 3.1 ^a U/L
- AST [2, 4]: 107.3 ± 11.9 ^a U/L
- CHOL [2, 4]: 2.9 ± 0.3 ^a mmol/L
- TRIGL [2, 4]: 0.8 ± 0.2 mmol/L
- weight loss and feeding inhibition effects compared with Semaglutide ([2]; once every three days, after 4 weeks, same dose): comparable to those of the control group Semaglutide

B3: HEC-G37: fusion protein of SEQ ID NO: 27 polypeptide, linker peptide and Fc fragment (protein)
chain: YAEGTFTSDYSIYLDKLAQQAFIEWLKAGGPSSGAPPPSGGGGSGGGGSGGGGSA[here human IgG4 Fc with S228P F234A L235A (EU numbers) without letters]
- agonistic activity in vitro [1]: strong activity in vitro

B4: HEC-G101: fusion protein of SEQ ID NO: 85 polypeptide, linker peptide and Fc fragment (protein)
chain: YGEGTFTSDYSIYLDKKAQQDFIDWLLAGGPSSGAPPPSGGGGSGGGGSGGGGSA[here human IgG4 Fc with S228P F234A L235A (EU numbers) without letters]
- agonistic activity in vitro [1]: strong activity in vitro

B5: HEC-G99: fusion protein of SEQ ID NO: 83 polypeptide, linker peptide and Fc fragment (protein)
chain: YGEGTFTSDYSIALDKKAQRDFIDWLLAGGPSSGAPPPSGGGGSGGGGSGGGGSA[here human IgG4 Fc with S228P F234A L235A (EU numbers) without letters]
- agonistic activity in vitro [1]: strong activity in vitro

B6: HEC-G66: fusion protein of SEQ ID NO: 50 polypeptide, linker peptide and Fc fragment (protein)
chain: YGEGTFTSDYSIYLDKLAQQAFVEWLLAGGPSSGAPPPSGGGGSGGGGSGGGGSA[here human IgG4 Fc with S228P F234A L235A (EU numbers) without letters]
- agonistic activity in vitro [1]: strong activity in vitro

B7: HEC-G67: fusion protein of SEQ ID NO: 51 polypeptide, linker peptide and Fc fragment (protein)
chain: YSEGTFTSDYSIYLDKKAQRDFVEWLLAGGPSSGAPPPSGGGGSGGGGSGGGGSA[here human IgG4 Fc with S228P F234A L235A (EU numbers) without letters]
- agonistic activity in vitro [1]: strong activity in vitro

B8: HEC-G74: fusion protein of SEQ ID NO: 58 polypeptide, linker peptide and Fc fragment (protein)
chain: YGEGTFTSDYSIYLDKKAQRDFIEWLIAQGPSSGAPPPSGGGGSGGGGSGGGGSA[here human IgG4 Fc with S228P F234A L235A (EU numbers) without letters]
- agonistic activity in vitro [1]: strong activity in vitro

B9: HEC-G38: fusion protein of SEQ ID NO: 28 polypeptide, linker peptide and Fc fragment (protein)
chain: YAEGTFTSDYSIYLDKLAQQAFIEWLLAGGPSSGAPPPSGGGGSGGGGSGGGGSA[here human IgG4 Fc with S228P F234A L235A (EU numbers) without letters]
- agonistic activity in vitro [1]: strong activity in vitro

B10: HEC-G72: fusion protein of SEQ ID NO: 56 polypeptide, linker peptide and Fc fragment (protein)
chain: YGEGTFTSDYSIYLDKKAQRDFIDWLLAGGPSSGAPPPSGGGGSGGGGSGGGGSA[here human IgG4 Fc with S228P F234A L235A (EU numbers) without letters]
- agonistic activity in vitro [1]: strong activity in vitro

B11: HEC-G48: fusion protein of SEQ ID NO: 37 polypeptide, linker peptide and Fc fragment (protein)
chain: YAEGTFTSDYSIYLDKIAQQAFIEWLLAGGPSSGAPPPSGGGGSGGGGSGGGGSA[here human IgG4 Fc with S228P F234A L235A (EU numbers) without letters]
- agonistic activity in vitro [1]: strong activity in vitro

Marks after values point to notes of the source that are not given here.
